# PubChem BioAssay (NCATS)
# The list shows a part of the results. Further columns of the screen follow, without active or inactive calls. Most of these compounds were active or inconclusive in the main read-out, so they are no random draw.
# Assay: qHTS Assay for Lipid Storage Modulators (AID 1519)
# Conditions: Drosophila S3 cells, BODIPY lipid droplet/cell ratio, laser cytometry; measured here: lipid channel max response; cells loaded with oleic acid
# Summary of the method: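 Cells seeded at 5,000 per well were treated with compounds over a concentration series and loaded with oleic acid (400 uM, as added). Lipid droplet fluorescence (488 nm excitation, 500-530 nm channel) was read by laser-scanning cytometry and normalized to 20 uM Triacsin C.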
row,Structure (SMILES),max response [%]
1,O=C(Nc1ccccc1)N1CCCC2(CCN(C(=O)c3cnccn3)CC2)C1,31.6
2,O=C(c1ccco1)N1CCC2(CC1)CN(c1cccc(-c3ccccc3)c1)C2,2.72
3,COc1cc2c(cc1OC)C(=O)OC2,44.1
4,COCCn1c(=O)c(-c2ccc(Cl)cc2)nc2cnc(Oc3ccccc3)nc21,20.4
5,Cc1nc(N=Nc2cc(S(=O)(=O)O)c3cc([N+](=O)[O-])cc(S(=O)(=O)O)c3c2)c(COP(=O)(O)O)c(C=O)c1O,36
6,C[N+]1(C)C2CCC1CC(OC(=O)C(O)c1ccccc1)C2 (stereo not drawn),37.9
7,COCCn1c(=O)c(-c2cccc(C#N)c2)nc2cnc(Nc3ccccc3)nc21,-46.2
8,O=S(=O)(c1ccccc1)N1CCC2(CCCN(c3ccccc3)C2)CC1,6.58
9,Cc1nc2cnc(N(C)C)nc2n(C)c1=O,39
10,CC(=O)N1CCC2(CC1)CCN(c1cccc(-c3ccccc3)c1)CC2,6.12
11,COc1ccc(-c2nc3cnc(Nc4ccccc4)nc3n(CCC#N)c2=O)cc1,-35.8
12,N#Cc1ccccc1-c1ccc2ncnc(NCc3cccnc3)c2c1,23.1
13,CCCN(CCC)CCc1cccc2c1CC(=O)N2,33.5
14,CCNc1ncc2nc(-c3cc(F)cc(F)c3)c(=O)n(-c3ccccc3)c2n1,14.3
15,FC(F)(F)c1ccccc1-c1nc(-n2ccnc2)c2ccccc2n1,28.5
16,CN1CCN(c2ncc3ncc(=O)n(CCc4ccccc4)c3n2)CC1,34
17,CN(C)c1ncc2nc(-c3ccccc3)c(=O)n(CCC#N)c2n1,29.2
18,CN(C)CCOC(c1ccccc1)c1ccccc1 (tested in a mixture with another compound),31.4
